The full ranking holds about 2,900 compounds; the median of “IRF Lucia reporter activity, fold change vs agonist alone” is about 0.9, and the highest 2% start at about 2.8. The list shows a part of the results.
Assays:
RAW-Dual [1] = experiment: IRF Lucia reporter activity, fold change vs agonist alone; cytotoxicity flag (confluency mask): not cytotoxic; higher = enhanced IRF activity
In short: (§1)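 RAW-Dual macrophages were seeded in DMEM at 50,000 cells/well in 384-well plates, given 50 nL of library stock by pin tool, and given a PRR agonist 1 h later. Plates were held at 37 °C, 5% CO2 for 20 hours, after which supernatant was read for IRF by QuantiLuc luminescence and for NF-κB by QuantiBlue absorbance at 620 nm. Reporter activity is expressed as fold change over wells that received agonist alone. A well was called cytotoxic when IncuCyte confluency fell below 70% of agonist controls in both mask sets.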

RAW-Dual [2] = experiment: IRF Lucia reporter activity, fold change vs agonist alone; higher = enhanced IRF activity; details: library stock concentration (final ~1000-fold dilution): 10 mM, agonist: MPLA (TLR4) […]
In short: as §1

RAW-Dual [3] = experiment: IRF Lucia reporter activity, fold change vs agonist alone; cytotoxicity flag (confluency mask): cytotoxic (confluency <70% of control); higher = enhanced IRF activity
In short: as §1

[4] = agonist: 3'3'-cGAMP (STING) 10 ug/mL
[5] = cytotoxicity flag (confluency mask): not cytotoxic

## CC(C)NCCCn1c(Sc2cc3c(cc2I)OCO3)nc2c(N)ncnc21 (library stock concentration (final ~1000-fold dilution): 10 mM)
RAW-Dual [1]; [4]
  IRF Lucia reporter activity: 0.411
RAW-Dual [1]; agonist: LPS (TLR4) 0.1 ug/mL
  IRF Lucia reporter activity: 1.42

## Cc1cccc(Nc2nc(-c3ccncc3)cs2)c1
RAW-Dual [2]; [5]
  IRF Lucia reporter activity: 0.644

## Cc1cccc(Nc2nc(-c3ccncc3)cs2)c1 (library stock concentration (final ~1000-fold dilution): 10 mM)
RAW-Dual [1]; [4]
  IRF Lucia reporter activity: 0.0993
RAW-Dual [1]; agonist: LPS (TLR4) 0.1 ug/mL
  IRF Lucia reporter activity: 0.805

## CC1(C)CC(=O)c2c(C(F)(F)F)nn(-c3ccc(C(N)=O)c(NC4CCC(O)CC4)c3)c2C1 (configuration not stated)
RAW-Dual [2]; [5]
  IRF Lucia reporter activity: 1.11

## CC1(C)CC(=O)c2c(C(F)(F)F)nn(-c3ccc(C(N)=O)c(NC4CCC(O)CC4)c3)c2C1 (configuration not stated) (library stock concentration (final ~1000-fold dilution): 10 mM)
RAW-Dual [1]; [4]
  IRF Lucia reporter activity: 1.07
RAW-Dual [1]; agonist: LPS (TLR4) 0.1 ug/mL
  IRF Lucia reporter activity: 0.598

## C=C(C)CSc1nnc2c(n1)[nH]c1ccccc12 (library stock concentration (final ~1000-fold dilution): 10 mM)
RAW-Dual [1]; [4]
  IRF Lucia reporter activity: 0.921
RAW-Dual [1]; agonist: LPS (TLR4) 0.1 ug/mL
  IRF Lucia reporter activity: 1.16

## COCCOc1cnc2ccn(C(C)c3nnc4c(F)cc(-c5cnn(C)c5)cn34)c(=O)c2c1 (configuration not stated) (library stock concentration (final ~1000-fold dilution): 10 mM)
RAW-Dual [1]; [4]
  IRF Lucia reporter activity: 0.911
RAW-Dual [1]; agonist: LPS (TLR4) 0.1 ug/mL
  IRF Lucia reporter activity: 0.469

## O=c1ncnc2[nH][nH]cc1-2
RAW-Dual [2]; [5]
  IRF Lucia reporter activity: 0.976

## O=c1ncnc2[nH][nH]cc1-2 (library stock concentration (final ~1000-fold dilution): 10 mM)
RAW-Dual [1]; [4]
  IRF Lucia reporter activity: 1.04
RAW-Dual [1]; agonist: LPS (TLR4) 0.1 ug/mL
  IRF Lucia reporter activity: 0.962

## CC(C)(C)NC(=O)c1cncn1C1CCN(c2ccc(-c3nnc(C(F)(F)F)o3)cn2)CC1 (library stock concentration (final ~1000-fold dilution): 10 mM)
RAW-Dual [1]; [4]
  IRF Lucia reporter activity: 1.33
RAW-Dual [1]; agonist: LPS (TLR4) 0.1 ug/mL
  IRF Lucia reporter activity: 3.77

## O=C(/C=C/c1ccc(O)cc1)c1ccccc1 (library stock concentration (final ~1000-fold dilution): 10 mM)
RAW-Dual [3]; [4]
  IRF Lucia reporter activity: 0.0303
RAW-Dual [3]; agonist: LPS (TLR4) 0.1 ug/mL
  IRF Lucia reporter activity: 0.0523

## CC(C)Cc1ccc(C(C)C(=O)NS(C)(=O)=O)cc1 (configuration not stated) (library stock concentration (final ~1000-fold dilution): 10 mM)
RAW-Dual [1]; [4]
  IRF Lucia reporter activity: 0.9
RAW-Dual [1]; agonist: LPS (TLR4) 0.1 ug/mL
  IRF Lucia reporter activity: 0.729

## O=c1c(O)c(-c2ccccc2)oc2cc(O)cc(O)c12 (library stock concentration (final ~1000-fold dilution): 10 mM)
RAW-Dual [1]; [4]
  IRF Lucia reporter activity: 0.623
RAW-Dual [1]; agonist: LPS (TLR4) 0.1 ug/mL
  IRF Lucia reporter activity: 0.314

## O=c1c(O)c(-c2ccccc2)oc2cc(O)cc(O)c12
RAW-Dual [2]; [5]
  IRF Lucia reporter activity: 0.745

## NC(=O)c1ccc2[nH]c(-c3ccc(Oc4ccc(Cl)cc4)cc3)nc2c1 (library stock concentration (final ~1000-fold dilution): 10 mM)
RAW-Dual [1]; [4]
  IRF Lucia reporter activity: 0.242
RAW-Dual [1]; agonist: LPS (TLR4) 0.1 ug/mL
  IRF Lucia reporter activity: 0.848

## CC(=O)O.NCc1ccc(S(N)(=O)=O)cc1
RAW-Dual [2]; [5]
  IRF Lucia reporter activity: 1.05

## CC(=O)O.NCc1ccc(S(N)(=O)=O)cc1 (library stock concentration (final ~1000-fold dilution): 10 mM)
RAW-Dual [1]; [4]
  IRF Lucia reporter activity: 1.01
RAW-Dual [1]; agonist: LPS (TLR4) 0.1 ug/mL
  IRF Lucia reporter activity: 0.97

## COc1ccc(CCCOC(Cn2ccnc2)c2ccc(OC)cc2)cc1.Cl (configuration not stated) (library stock concentration (final ~1000-fold dilution): 10 mM)
RAW-Dual [1]; [4]
  IRF Lucia reporter activity: 0.548
RAW-Dual [1]; agonist: LPS (TLR4) 0.1 ug/mL
  IRF Lucia reporter activity: 0.881

## NC(=O)c1cccc2cn(-c3ccc(C4CCCNC4)cc3)nc12 (configuration not stated)
RAW-Dual [2]; [5]
  IRF Lucia reporter activity: 0.595

## NC(=O)c1cccc2cn(-c3ccc(C4CCCNC4)cc3)nc12 (configuration not stated) (library stock concentration (final ~1000-fold dilution): 10 mM)
RAW-Dual [1]; [4]
  IRF Lucia reporter activity: 0.52
RAW-Dual [1]; agonist: LPS (TLR4) 0.1 ug/mL
  IRF Lucia reporter activity: 0.454

## CCN1/C(=C/C(C)=O)Sc2ccc(OC)cc21 (library stock concentration (final ~1000-fold dilution): 10 mM)
RAW-Dual [1]; [4]
  IRF Lucia reporter activity: 0.606
RAW-Dual [1]; agonist: LPS (TLR4) 0.1 ug/mL
  IRF Lucia reporter activity: 0.533

## CCN1/C(=C/C(C)=O)Sc2ccc(OC)cc21
RAW-Dual [2]; [5]
  IRF Lucia reporter activity: 0.557

## CCCCC(C=O)NC(=O)C(CC(C)C)NC(=O)C(CC(C)C)NC(C)=O (configuration not stated)
RAW-Dual [2]; [5]
  IRF Lucia reporter activity: 2.59

## CCCCC(C=O)NC(=O)C(CC(C)C)NC(=O)C(CC(C)C)NC(C)=O (configuration not stated) (library stock concentration (final ~1000-fold dilution): 10 mM)
RAW-Dual [1]; [4]
  IRF Lucia reporter activity: 0.827
RAW-Dual [1]; agonist: LPS (TLR4) 0.1 ug/mL
  IRF Lucia reporter activity: 2.25

## O=C(NOCC(O)CO)c1ccc(F)c(F)c1Nc1ccc(I)cc1F (configuration not stated) (library stock concentration (final ~1000-fold dilution): 10 mM)
RAW-Dual [1]; [4]
  IRF Lucia reporter activity: 0.903
RAW-Dual [1]; agonist: LPS (TLR4) 0.1 ug/mL
  IRF Lucia reporter activity: 3.61

## O=C(NOCC(O)CO)c1ccc(F)c(F)c1Nc1ccc(I)cc1F (configuration not stated)
RAW-Dual [2]; [5]
  IRF Lucia reporter activity: 3.52

## CCCCOc1ccc(CC(=O)NO)cc1 (library stock concentration (final ~1000-fold dilution): 10 mM)
RAW-Dual [1]; [4]
  IRF Lucia reporter activity: 0.25
RAW-Dual [1]; agonist: LPS (TLR4) 0.1 ug/mL
  IRF Lucia reporter activity: 0.826

## CCCCOc1ccc(CC(=O)NO)cc1
RAW-Dual [2]; [5]
  IRF Lucia reporter activity: 1.01

## Oc1c(Cl)cc(Cl)cc1Sc1cc(Cl)cc(Cl)c1O (library stock concentration (final ~1000-fold dilution): 10 mM)
RAW-Dual [3]; [4]
  IRF Lucia reporter activity: 0.606
RAW-Dual [3]; agonist: LPS (TLR4) 0.1 ug/mL
  IRF Lucia reporter activity: 1.09

## Oc1c(Cl)cc(Cl)cc1Sc1cc(Cl)cc(Cl)c1O
RAW-Dual [2]; cytotoxicity flag (confluency mask): cytotoxic (confluency <70% of control)
  IRF Lucia reporter activity: 1.11

## Cc1cc(C)cc(NC(=O)Cc2ccc(OC(C)(C)C(=O)O)cc2)c1 (library stock concentration (final ~1000-fold dilution): 10 mM)
RAW-Dual [1]; [4]
  IRF Lucia reporter activity: 0.948
RAW-Dual [1]; agonist: LPS (TLR4) 0.1 ug/mL
  IRF Lucia reporter activity: 0.958

## COC(=O)c1c2c(c3ccccc3c1O)OC(C)(C)C=C2 (library stock concentration (final ~1000-fold dilution): 10 mM)
RAW-Dual [1]; [4]
  IRF Lucia reporter activity: 0.112
RAW-Dual [1]; agonist: LPS (TLR4) 0.1 ug/mL
  IRF Lucia reporter activity: 0.62

## CCCCN1CCCCC1C(=O)Nc1c(C)cccc1C.Cl (configuration not stated) (library stock concentration (final ~1000-fold dilution): 10 mM)
RAW-Dual [1]; [4]
  IRF Lucia reporter activity: 0.973
RAW-Dual [1]; agonist: LPS (TLR4) 0.1 ug/mL
  IRF Lucia reporter activity: 1.09

## CCCCN1CCCCC1C(=O)Nc1c(C)cccc1C.Cl (configuration not stated)
RAW-Dual [2]; [5]
  IRF Lucia reporter activity: 1.09

## COc1ccc(/C=C/C(=O)C2(C(=O)/C=C/c3ccc(OC)c(OC)c3)CCCCC2)cc1OC
RAW-Dual [2]; [5]
  IRF Lucia reporter activity: 0.15

## COc1ccc(/C=C/C(=O)C2(C(=O)/C=C/c3ccc(OC)c(OC)c3)CCCCC2)cc1OC (library stock concentration (final ~1000-fold dilution): 10 mM)
RAW-Dual [1]; [4]
  IRF Lucia reporter activity: 0.0112
RAW-Dual [1]; agonist: LPS (TLR4) 0.1 ug/mL
  IRF Lucia reporter activity: 0.256

## CCC(C)(Nc1ccnc(-c2c[nH]c3ncccc23)n1)C(=O)NCC(F)(F)F (configuration not stated) (library stock concentration (final ~1000-fold dilution): 10 mM)
RAW-Dual [1]; [4]
  IRF Lucia reporter activity: 0.291
RAW-Dual [1]; agonist: LPS (TLR4) 0.1 ug/mL
  IRF Lucia reporter activity: 0.35

## CCC(C)(Nc1ccnc(-c2c[nH]c3ncccc23)n1)C(=O)NCC(F)(F)F (configuration not stated)
RAW-Dual [2]; [5]
  IRF Lucia reporter activity: 0.41

Source: the supplement of paper PMC10037445
